# From the supplement of paper PMC10338343
# ± gives the standard deviation. The list shows a part of the results, in another mix than the full data.
# System: MIWI (PIWIL1) piRISC loaded with L1MC piRNA (30 nt)
# Assay: pre-steady-state target cleavage rate (min^-1); MIWI and MILI are mouse PIWI proteins and EfPiwi is from a freshwater sponge; tags in brackets are library labels; higher = faster piRNA-guided slicing of the target
# Details: guide: L1MC piRNA 5'p-UAACUAAAUACUAUGCAAGCUGUAGGUCCU
# In short: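 With or without 500 nM GTSF1 partner protein, 1 nM active affinity-purified piRISC carrying one synthetic guide was mixed with 0.1 nM transcribed, DNA-blocked target RNA library in HEPES–potassium acetate buffer at 33 °C for 0–8 or 0–960 min. Uncleaved targets were sequenced and normalised to depth and to weakly complementary targets, three trials were pooled, and k3 was capped at 0.0001 min^-1. The pre-steady-state cleavage rate came from a burst-and-steady-state fit.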
# [1] = auxiliary factor: 500 nM mouse GTSF1
# [2] = auxiliary factor: none (no GTSF1)
Sequence,pre-steady-state target cleavage rate [1],pre-steady-state target cleavage rate [2]
UCCACCUACAGCUUGCAUUGUAUUUUGUUA,0.407 ± 0.026,0.0116 ± 0.0027
UCGACCUACAGCUUGCAUAGUAUUUGGUUA,0.847 ± 0.032,0.0586 ± 0.01
UCGACCUUGUGCUUGCAUAGUAUUUAGAAA,0.165 ± 0.024,0.00532 ± 0.0014
UCCACCUACAGCUUGCAUAGAAUUUAGUAA,0.305 ± 0.04,0.0116 ± 0.0027
UCCUGGAACAGCUUGGAUAGAAUUUAGUUA,0.268 ± 0.048,0.0189 ± 0.0064
UCCUGCUACGAGCUUGCAUAGUAUUUAGUUA,0.717 ± 0.073,0.0315 ± 0.0066
UCGUCCUACAGCUUGCAUAGUAAUUAGUUA,0.874 ± 0.027,0.0282 ± 0.006
UGGACCUACACCUUGCAUAGUAUUUAGUAA,0.699 ± 0.07,0.0318 ± 0.0058
UCCUGGAUGAGCUUGCAUACUAUUUUGUUA,0.0444 ± 0.01,0.0102 ± 0.0032
UCCUGGAACAAGCUUGCAUAGUAUUUAGUUA,0.908 ± 0.037,0.0561 ± 0.012
UCGACGCUACAGCUUGCAUAGUAUUUAGUUA,1.27 ± 0.063,0.094 ± 0.022
UCCUGGAUGAGCUUGCAUAGUAUUUCAGUUA,0.359 ± 0.051,0.0143 ± 0.0037
UCCUGGUACAGCUUGCAUACUAUAUAGUUA,0.163 ± 0.035,0.00542 ± 0.0028
UCCACCUACAGCUUGCAUAGUAUUGUAGUUA,0.281 ± 0.047,0.00636 ± 0.0035
UGGUCCUACAGCUUGCAUAGUAUUUAGUUA,1.16 ± 0.052,0.0862 ± 0.015
UCCUGGAUGACCUUGCAUAGUAUUUACAAA,0.014 ± 0.0052,0.00383 ± 0.0034
UCCUGCUACAGCUUGCUUAGUAUUUUGUUA,0.641 ± 0.043,0.00925 ± 0.0021
UCCUCCAUCAGCUUGCAUAGUAUUUAGAAA,0.169 ± 0.031,0.00618 ± 0.0023
UCCUGGAUCUGCUUGCAUACUAUUUAGUUA,0.137 ± 0.013,0.0196 ± 0.0058
AGGACCUAGAGCUUGCAUAGUAUUAAGUUA,0.56 ± 0.058,0.0254 ± 0.0057

Sequence,pre-steady-state target cleavage rate [1],pre-steady-state target cleavage rate [2]
UCCUGGUACAGCUUGCAUAGUAAAAAGUUA,0.191 ± 0.041,0.00294 ± 0.0022
UCCACCUACAGGUUGGAUAGUAUUUAGUUA,1.28 ± 0.13,0.0264 ± 0.0047
UCGACCUACAGCUUGCAUACUAUUUAGAAA,0.238 ± 0.039,0.00653 ± 0.0025
UCCUGGAUCAGCUUGGAUAGUAUUUACUUA,0.244 ± 0.048,0.00918 ± 0.0037
UCGACCUACAGCUUGCUUAGUAAUUAGUUA,0.872 ± 0.046,0.00981 ± 0.0032
UCCUCCUACAGCUUUCAUAGUAUUUAGUUA,0.536 ± 0.026,0.0159 ± 0.0028
UCCUCCUACAGCUUGCAUAGUAUUUAGUGUA,0.322 ± 0.033,0.0225 ± 0.0046
AGGACCUACAGCUUGCAUACUAUUUAGUAA,0.233 ± 0.029,0.018 ± 0.004
UGGUCCUACACCUUGCAUAGUAUUUAGUUA,0.936 ± 0.042,0.0532 ± 0.0087
UCCACCUACACCUUGCAUAGUAUUUAGAAA,0.374 ± 0.066,0.00472 ± 0.0024
AGGACCUUCACCUUGCAUAGUAUUUAGUUA,1.06 ± 0.04,0.0628 ± 0.01
UGGACCUACAGCUUGCAUAGUAAUUUAGUUA,0.131 ± 0.013,0.0131 ± 0.0024
UCCUGGAUCAGCUUGCAUAGUAAUUUAGUUA,0.0743 ± 0.011,0.00721 ± 0.0016
AGGACCUACAGCUUGCAUAGUAUUUAGUUG [g2:g30:cont:t1G],0.455 ± 0.046,0.0773 ± 0.018
UCCUGCUAGAGCUUGCAUAGUAUUUAGAAA,0.374 ± 0.068,0.00336 ± 0.0028
UCGACCUACAGCUUGCAUAGUUUUUACUUA,0.164 ± 0.018,0.022 ± 0.0056
UCCUGGUUGAGCUUGCAUAGUAUUUAGUAA,0.54 ± 0.047,0.0223 ± 0.0069
UCGAACUACAGCUUGCAUAGUAUUUAGUUA,1.39 ± 0.049,0.0698 ± 0.011
UGGACCUUCAGCUUGCAUAGUAUUUACUUA,0.276 ± 0.024,0.0456 ± 0.01
UCGACCUACAAGCUUGCAUAGUAUUUAGUUA,1.15 ± 0.046,0.0672 ± 0.014

Sequence,pre-steady-state target cleavage rate [1],pre-steady-state target cleavage rate [2]
UCCACGUACAGCUUGCAUAGUAUUUAGUAA,0.521 ± 0.032,0.0319 ± 0.0057
UCCUGGAUCAGCUUGCAUUGUAUUUAGAUA,0.218 ± 0.026,0.0101 ± 0.0031
UCCUCGUACAGCUAGCAUAGUAUUUAGUUA,1.21 ± 0.05,0.0198 ± 0.0034
UCCACCUACACCUUGGAUAGUAUUUAGUUA,0.588 ± 0.064,0.0236 ± 0.0034
UCCUCGUACAGCUUGCAUAGAAUUUAGUUA,0.307 ± 0.021,0.0271 ± 0.0073
UGGACCUACAGCUAGCAUAGUAUAUAGUUA,0.77 ± 0.049,0.014 ± 0.0042
UCCUGGAUGAGCUAGCAUAGAAUUUAGUUA,0.0859 ± 0.012,0.00371 ± 0.0033
UGGACCUAGAGCUAGCAUAGUAUUUAGUUA,1.06 ± 0.063,0.0168 ± 0.0043
UCCACCUACAGCAUGCAUAGUAUUUACUUA,0.521 ± 0.057,0.0148 ± 0.0032
UCGUGCUACAGCUUGCAUAGUAUUUACAAA,0.326 ± 0.042,0.00286 ± 0.0028
UCCUCCUACUCCUUGCAUAGUAUUUAGUAA,0.39 ± 0.028,0.0149 ± 0.0024
UCCUGGAUGUGCUUGGAUAGUAUAUAGUUA,0.0799 ± 0.017,0.0106 ± 0.0049
UCCUGGUACAGCUUGCAUAGAAAUUAGUUA,0.0644 ± 0.015,0.00499 ± 0.0025
AGGACCUACAGCUUGCUUAGUAUUUACUUA,0.552 ± 0.046,0.0641 ± 0.016
AGGACCUACAGCUUGCUUAGUAUUUAGUAA,0.862 ± 0.079,0.0262 ± 0.0068
UGGACCGUACAGCUUGCAUAGUAUUUAGUUA,1.24 ± 0.06,0.064 ± 0.0096
UCCUCCUACAGCUUGCAUAGUAUUAAGUAA,0.284 ± 0.041,0.00611 ± 0.0026
UCCACCUAGAGCUUGCAUUGUAUUUAGUUA,0.568 ± 0.056,0.0183 ± 0.0036
UCCUCCUUGUGCUUGCAUAGUAUUUAGUAA,0.343 ± 0.043,0.0172 ± 0.003
AGGACGUACAGCAUGCAUAGUAUUUAGUUA,1.21 ± 0.048,0.045 ± 0.0076
